Reference: the supplement of paper PMC4967469
The IC50 comes from the fitted curve, where viability falls to half of the control; where the fit passes the top or lowest dose, that dose stands as a limit. The AUC spans the tested range (256-fold, ending at the top dose) of the same fit: 1 means no effect, lower means more sensitive. For part of these data: An inferred top dose comes from the curve model; the source does not state it.

Tests used:
Test in all cases: Viability of human cancer cell lines after 72 h of drug (GDSC screen)
Axitinib = compound: CNC(=O)c1ccccc1Sc1ccc2c(/C=C/c3ccccn3)n[nH]c2c1 [Axitinib]; conditions: top dose 2 µM
Method: (§1)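 Human cancer cell lines in 384-well plates, medium with 10% serum, drug for 72 h over a 256-fold dose range (nine 2-fold or five 4-fold steps up to the top dose). Adherent lines were fixed and stained with the nucleic acid dye Syto60, suspension lines read with resazurin; signal relative to control wells, capped at 0 and 100%. One two-parameter sigmoid per drug and line, fitted in a mixed model over all curves with the slope shared within a line.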

Vorinostat = compound: O=C(CCCCCCC(=O)Nc1ccccc1)NO [Vorinostat]; conditions: top dose 10 µM
Method: as §1

SN-38 = compound: CCc1c2c(nc3ccc(O)cc13)-c1cc3c(c(=O)n1C2)COC(=O)[C@]3(O)CC [SN-38]; conditions: top dose 0.05 µM; top dose inferred
Method: as §1

Dabrafenib = compound: CC(C)(C)c1nc(-c2cccc(NS(=O)(=O)c3c(F)cccc3F)c2F)c(-c2ccnc(N)n2)s1 [Dabrafenib]; conditions: top dose 10 µM
Method: as §1

Methotrexate = compound: CN(Cc1cnc2nc(N)nc(N)c2n1)c1ccc(C(=O)N[C@@H](CCC(=O)O)C(=O)O)cc1 [Methotrexate]; conditions: top dose 0.2 µM
Method: as §1

Row | Cell Line | AUC (Axitinib) | IC50 (Axitinib) [nM] | AUC (Vorinostat) | IC50 (Vorinostat) [nM] | AUC (SN-38) | IC50 (SN-38) [nM] | AUC (Dabrafenib) | IC50 (Dabrafenib) [nM] | AUC (Methotrexate) | IC50 (Methotrexate) [nM]
1 | TE-8 (oesophagus, adherent) | 0.978 | > 2000 | 0.713 | 2630 | 0.59 | 5.63 | 0.911 | > 10000 | 0.982 | > 200
2 | CML-T1 (chronic myeloid leukaemia, suspension) | 0.561 | 178 | 0.499 | 620 | 0.126 | 0.281 | 0.692 | 1940 | 0.696 | 39.7
3 | JHH-1 (liver, adherent) | 0.963 | > 2000 | 0.528 | 751 | 0.875 | > 50 | 0.977 | > 10000 | 0.982 | > 200
4 | RH-18 (rhabdomyosarcoma, adherent) | 0.959 | > 2000 | 0.691 | 2340 | 0.883 | > 50 | 0.976 | > 10000 | 0.979 | > 200
5 | EM-2 (chronic myeloid leukaemia, suspension) | 0.483 | 111 | 0.545 | 843 | 0.498 | 3.09 | 0.757 | 3860 | 0.59 | 22.9
6 | SBC-3 (small cell lung carcinoma, adherent) | 0.881 | 1760 | 0.55 | 845 | 0.367 | 1.39 | 0.943 | > 10000 | 0.701 | 43.2
7 | JHH-2 (liver, adherent) | 0.986 | > 2000 | 0.812 | 5880 | 0.738 | 15.9 | 0.964 | > 10000 | 0.879 | > 200
8 | CAL-85-1 (breast, adherent) | 0.976 | > 2000 | 0.865 | > 10000 | 0.765 | 23.5 | 0.973 | > 10000 | 0.975 | > 200
9 | CADO-ES1 (Ewing sarcoma, suspension) | 0.986 | > 2000 | 0.687 | 2110 | 0.538 | 3.97 | 0.958 | > 10000 | 0.925 | > 200
10 | NCI-H1568 (lung adenocarcinoma, adherent) | 0.979 | > 2000 | 0.836 | 9080 | 0.684 | 11.7 | 0.939 | > 10000 | 0.957 | > 200
11 | NCI-H2141 (small cell lung carcinoma, suspension) | 0.986 | > 2000 | 0.819 | 5500 | 0.944 | > 50 | 0.99 | > 10000 | 0.972 | > 200
12 | SW1573 (lung adenocarcinoma, adherent) | 0.925 | > 2000 | 0.745 | 4130 | 0.574 | 5.32 | 0.907 | > 10000 | 0.972 | > 200
13 | CESS (acute myeloid leukaemia, suspension) | 0.977 | > 2000 | 0.794 | 3880 | 0.496 | 3.06 | 0.951 | > 10000 | 0.912 | > 200
14 | EW-3 (Ewing sarcoma, adherent) | 0.966 | > 2000 | 0.532 | 772 | 0.263 | 0.587 | 0.932 | > 10000 | 0.806 | 119
15 | TE-9 (oesophagus, adherent) | 0.974 | > 2000 | 0.867 | 9580 | 0.683 | 10.4 | 0.978 | > 10000 | 0.967 | > 200
16 | NCI-H650 (lung adenocarcinoma, adherent) | 0.986 | > 2000 | 0.75 | 3560 | 0.764 | 20 | 0.888 | > 10000 | 0.91 | > 200
17 | MFM-223 (breast, adherent) | 0.733 | 570 | 0.788 | 4350 | 0.938 | > 50 | 0.957 | > 10000 | 0.989 | > 200
18 | IST-MEL1 (melanoma, adherent) | 0.965 | > 2000 | 0.766 | 4390 | 0.472 | 2.58 | 0.461 | 481 | 0.784 | 103
19 | ESO51 (oesophagus, semi-adherent) | 0.97 | > 2000 | 0.531 | 786 | 0.907 | > 50 | 0.965 | > 10000 | 0.875 | > 200
20 | SUP-HD1 (Hodgkin lymphoma, suspension) | 0.943 | > 2000 | 0.54 | 799 | 0.372 | 1.41 | 0.982 | > 10000 | 0.839 | 127
21 | SNU-407 (large intestine, adherent) | 0.953 | > 2000 | 0.703 | 2600 | 0.765 | 21.3 | 0.888 | > 10000 | 0.874 | > 200
22 | SF126 (glioma, adherent) | 0.856 | 1760 | 0.823 | 6310 | 0.565 | 4.75 | 0.98 | > 10000 | 0.986 | > 200
23 | RCC-JF (kidney, adherent) | 0.908 | > 2000 | 0.683 | 2170 | 0.549 | 4.31 | 0.725 | 2980 | 0.983 | > 200
24 | L-1236 (Hodgkin lymphoma, suspension) | 0.992 | > 2000 | 0.595 | 1090 | 0.882 | 38.9 | 0.988 | > 10000 | 0.804 | 82.3
25 | KINGS-1 (glioma, adherent) | 0.936 | > 2000 | 0.821 | 8960 | 0.861 | > 50 | 0.865 | > 10000 | 0.878 | > 200
26 | BICR78 (head and neck, adherent) | 0.854 | 1970 | 0.487 | 572 | 0.513 | 3.42 | 0.935 | > 10000 | 0.971 | > 200

Row | Cell Line | AUC (Axitinib) | IC50 (Axitinib) [nM] | AUC (Vorinostat) | IC50 (Vorinostat) [nM] | AUC (SN-38) | IC50 (SN-38) [nM] | AUC (Dabrafenib) | IC50 (Dabrafenib) [nM] | AUC (Methotrexate) | IC50 (Methotrexate) [nM]
27 | HSC-2 (head and neck, adherent) | 0.975 | > 2000 | 0.699 | 2160 | 0.332 | 1.11 | 0.988 | > 10000 | 0.838 | 121
28 | NCI-H3122 (lung adenocarcinoma, adherent) | 0.937 | > 2000 | 0.668 | 1870 | 0.738 | 15.3 | 0.961 | > 10000 | 0.853 | 163
29 | UMC-11 (lung carcinoid, adherent) | 0.937 | > 2000 | 0.799 | 4200 | 0.955 | > 50 | 0.965 | > 10000 | 0.987 | > 200
30 | SNU-81 (large intestine, adherent) | 0.95 | > 2000 | 0.816 | 8180 | 0.882 | > 50 | 0.98 | > 10000 | 0.871 | > 200
31 | ES4 (Ewing sarcoma, adherent) | 0.949 | > 2000 | 0.662 | 1900 | 0.353 | 1.15 | 0.952 | > 10000 | 0.681 | 43.3
32 | YAPC (pancreas, adherent) | 0.949 | > 2000 | 0.915 | > 10000 | 0.734 | 17.4 | 0.824 | 7980 | 0.923 | > 200
33 | HuO-3N1 (osteosarcoma, adherent) | 0.939 | > 2000 | 0.805 | 7070 | 0.867 | > 50 | 0.966 | > 10000 | 0.944 | > 200
34 | no-10 (glioma, adherent) | 0.983 | > 2000 | 0.892 | > 10000 | 0.64 | 8.34 | 0.944 | > 10000 | 0.97 | > 200
35 | HuCCT1 (biliary tract, adherent) | 0.978 | > 2000 | 0.81 | 6020 | 0.658 | 9.03 | 0.638 | 1580 | 0.982 | > 200
36 | TE-6 (oesophagus, adherent) | 0.976 | > 2000 | 0.777 | 4730 | 0.975 | > 50 | 0.972 | > 10000 | 0.979 | > 200
37 | MFH-ino (soft tissue, adherent) | 0.899 | > 2000 | 0.668 | 2010 | 0.416 | 1.77 | 0.972 | > 10000 | 0.981 | > 200
38 | NCI-H2172 (non-small cell lung carcinoma, adherent) | 0.983 | > 2000 | 0.894 | > 10000 | 0.981 | > 50 | 0.98 | > 10000 | 0.983 | > 200
39 | NCI-H1436 (small cell lung carcinoma, suspension) | 0.974 | > 2000 | 0.74 | 3400 | 0.905 | > 50 | 0.968 | > 10000 | 0.962 | > 200
40 | PL-21 (acute myeloid leukaemia, suspension) | 0.909 | > 2000 | 0.684 | 2240 | 0.809 | 31.6 | 0.954 | > 10000 | 0.92 | > 200
41 | DMS-79 (small cell lung carcinoma, suspension) | 0.986 | > 2000 | 0.761 | 4090 | 0.824 | 36.4 | 0.985 | > 10000 | 0.894 | > 200
42 | RCC-MF (kidney, adherent) | 0.914 | > 2000 | 0.748 | 4060 | 0.664 | 10.3 | 0.861 | > 10000 | 0.974 | > 200
43 | NCI-H841 (small cell lung carcinoma, adherent) | 0.876 | > 2000 | 0.682 | 2030 | 0.82 | 28.7 | 0.953 | > 10000 | 0.98 | > 200
44 | JHOS-4 (ovary, adherent) | 0.957 | > 2000 | 0.832 | > 10000 | 0.747 | 22.5 | 0.973 | > 10000 | 0.974 | > 200
45 | NUGC-4 (stomach, adherent) | 0.979 | > 2000 | 0.526 | 734 | 0.894 | > 50 | 0.986 | > 10000 | 0.924 | > 200
46 | NB17 (neuroblastoma, adherent) | 0.939 | > 2000 | 0.648 | 1720 | 0.685 | 11.2 | 0.982 | > 10000 | 0.984 | > 200
47 | OVMIU (ovary, adherent) | 0.973 | > 2000 | 0.715 | 2990 | 0.78 | 25.9 | 0.977 | > 10000 | 0.859 | > 200
48 | H2595 (mesothelioma, adherent) | 0.898 | > 2000 | 0.732 | 3770 | 0.873 | > 50 | 0.972 | > 10000 | 0.979 | > 200
49 | KATOIII (stomach, semi-adherent) | 0.595 | 223 | 0.705 | 2230 | 0.959 | > 50 | 0.983 | > 10000 | 0.969 | > 200
50 | GA-10 (Burkitt lymphoma, suspension) | 0.969 | > 2000 | 0.547 | 820 | 0.92 | > 50 | 0.975 | > 10000 | 0.869 | 138
51 | SW626 (ovary, adherent) | 0.982 | > 2000 | 0.673 | 2080 | 0.77 | 22.5 | 0.971 | > 10000 | 0.981 | > 200
